# From the RNAGym collection of RNA variant scans (doi:10.1093/nar/gkz1192)
# Read counts are not given, so values of variants with three or more changes are uncertain.
# B1: CPEB3 Ribozyme (parent)
# chain: UAACAGGGGGCCACAGCAGAAGCGUUCACGUCGCAGCCCCUGUCAGAUUCUGGUGAAUCUGCGAAUUCUGCUGUAUAUCUC
# Variants of: B1
# Experiment: self-cleavage, relative activity (ratio to wild type); higher = more cleavage; in vitro, sequencing
# How it was run: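 Libraries of CPEB3 self-cleaving ribozyme mutants came from rounds of error-prone PCR and carried barcodes, which DNA sequencing matched to variants. In vitro transcription used T7 RNA polymerase at 37°C for 5 hours, with a further 15 min in DNase I before EDTA stopped the reaction; the ribozymes cleaved during both steps. The RNA was reverse transcribed with template switching and sequenced on Illumina. Relative activity is the cleaved/total read fraction of a variant divided by that of the unmutated ribozyme, averaged over three batches with at least 5 reads.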
row,Variant,self-cleavage
1,C14U A18U U26A A35G A47G U72C U74C,0.34
2,C14G G42U U51C,0.14
3,A13U U72C U76C C81U,1.19
4,A13U U41C U43C U54A U60C A64C,0.11
5,C14U U41G A57G U80C,0.18
6,A13U U43C A57U,0.17
7,A13U U43C A57G,0.34
8,C14U U69A U72A,0.26
9,C14A A15G U31G A35G C62U,0.38
10,C14A A15G G33C G61A G70A,0.23
11,C14U U25C U72C,0.22
12,A13U U51C U69A,0.55
13,A13U U54A U80C,1.13
14,A13U U66C U67A,0.27
15,C14A A18G A47U A56G U69C,0.57
16,C14U U26C U51A A64G,0.55
17,C14A C32U G42A U74C A77G,0.04
18,C14U U31C U78A,0.73
19,C14A A15C U43C U51G A77G,0.6
20,C14U A21G A65G,0.28
21,C14A G19A U60A A65G U76A U80G,0.02

row,Variant,self-cleavage
1,A13U U43A A64U U67C,0.26
2,C14U U67C U69C U74G,0.09
3,C14U U54C A65U U67C,0.16
4,C14A A15G A28C,0.56
5,C14A C17A C32U,0.31
6,C14A A15U C38U U54C G55A A65G,0.05
7,C14U U69C G73A,1.1
8,C14U U60A U80C,0.81
9,C14U U31A A35U U58C U69C,0.05
10,C14U A21G C50G U54C,0.12
11,A13U U43C G53C U54C A56G A75G,0.76
12,C14A A21G G63C U78C,0.41
13,A13U U43A U66C,0.68
14,C14A A15U U43A U54C U60A U66A,0.2
15,C14A U26A A47G,0.88
16,C14U U48A A56G,0.68
17,C14U A35U A57G U69C,0.32
18,A13U U54G U69C,0.26
19,C14G U25C U51C U66C,0.16
20,C14A U41A U43C U49C U58A U72A,0.08
21,C14A A28U U54A,1.01

row,Variant,self-cleavage
1,C14U A47U U58A A64G,1.11
2,C14A A20U U43C G46A U69C,0.06
3,A13U U43A U67G C81U,0.38
4,C14U A56G A57G U78C,0.49
5,C14A A28U C50U,0.86
6,C14U A20G A47G U69C,0.22
7,C14U A56G A65U U67C U80C,0.18
8,C14U U31A G33U U43G G46U A47U U67C,0.09
9,C14U A35U U74A,1.17
10,C14A U60C U67A,0.24
11,A13U U41C U60C U69A,0.26
12,C14A A21G A65G U66C U80C,0.22
13,A13U U41A U58C C62U,0.31
14,A13U U48C U74C,0.95
15,C14G U25C A56U U78C,0.05
16,A13U U74A U80A,1.29
17,C14U A20G C27U A56G U67C,0.07
18,A15C A20G A35G A56G A64G A77U,1.22
19,C14U A15G A28U U41C A57U,0.15
20,A13U U58C U72A,0.15
21,C14U G30A U69A U80C,0.06

row,Variant,self-cleavage
1,C14U U31A A45G U69C,0.27
2,A13U U49C U51A,0.56
3,C14U A35G U41C A64G,1.3
4,C14A U43C U74C,1.15
5,A13U U41C A75G A77U,1.2
6,A13U U74C U78C,1.27
7,A15C A20G C29G U51C,0.25
8,A15C A20G U43C,0.46
9,C14A U51C U58C U66C U76C,0.24
10,C14A U49C A75G,0.25
11,C14U A28G U41C A57G C62U,0.12
12,C14U A20G A45G U54C U67C,0.96
13,A13U U49C U54A U60C,0.18
14,C14U U76G U80C,1.23
15,A13U U48C A56G U72A,0.31
16,C14U U26C A47U U54C C62U A64G U66C,0.05
17,C14G A45U U48C,0.14
18,C14U A45C U78C,0.67
19,A15C A20G C39U,0.5
20,C14A A18G U49C A64G G73A,0.2
